According to publication PMC4336329 (PLoS ONE, 2015):
The campaign covered roughly 310,000 compounds. About 2,200 (0.71%) showed an effect of 50% or more. Effects have a minus sign here. The list shows a part of the results.

Target: human ether-à-go-go-related gene (hERG) potassium channel (human, UniProt Q12809)
Assay: primary screen, population patch clamp on CHO cells stably expressing hERG

human ether-à-go-go-related gene (hERG) potassium channel, sequence (Q12809 whole entry, looked up): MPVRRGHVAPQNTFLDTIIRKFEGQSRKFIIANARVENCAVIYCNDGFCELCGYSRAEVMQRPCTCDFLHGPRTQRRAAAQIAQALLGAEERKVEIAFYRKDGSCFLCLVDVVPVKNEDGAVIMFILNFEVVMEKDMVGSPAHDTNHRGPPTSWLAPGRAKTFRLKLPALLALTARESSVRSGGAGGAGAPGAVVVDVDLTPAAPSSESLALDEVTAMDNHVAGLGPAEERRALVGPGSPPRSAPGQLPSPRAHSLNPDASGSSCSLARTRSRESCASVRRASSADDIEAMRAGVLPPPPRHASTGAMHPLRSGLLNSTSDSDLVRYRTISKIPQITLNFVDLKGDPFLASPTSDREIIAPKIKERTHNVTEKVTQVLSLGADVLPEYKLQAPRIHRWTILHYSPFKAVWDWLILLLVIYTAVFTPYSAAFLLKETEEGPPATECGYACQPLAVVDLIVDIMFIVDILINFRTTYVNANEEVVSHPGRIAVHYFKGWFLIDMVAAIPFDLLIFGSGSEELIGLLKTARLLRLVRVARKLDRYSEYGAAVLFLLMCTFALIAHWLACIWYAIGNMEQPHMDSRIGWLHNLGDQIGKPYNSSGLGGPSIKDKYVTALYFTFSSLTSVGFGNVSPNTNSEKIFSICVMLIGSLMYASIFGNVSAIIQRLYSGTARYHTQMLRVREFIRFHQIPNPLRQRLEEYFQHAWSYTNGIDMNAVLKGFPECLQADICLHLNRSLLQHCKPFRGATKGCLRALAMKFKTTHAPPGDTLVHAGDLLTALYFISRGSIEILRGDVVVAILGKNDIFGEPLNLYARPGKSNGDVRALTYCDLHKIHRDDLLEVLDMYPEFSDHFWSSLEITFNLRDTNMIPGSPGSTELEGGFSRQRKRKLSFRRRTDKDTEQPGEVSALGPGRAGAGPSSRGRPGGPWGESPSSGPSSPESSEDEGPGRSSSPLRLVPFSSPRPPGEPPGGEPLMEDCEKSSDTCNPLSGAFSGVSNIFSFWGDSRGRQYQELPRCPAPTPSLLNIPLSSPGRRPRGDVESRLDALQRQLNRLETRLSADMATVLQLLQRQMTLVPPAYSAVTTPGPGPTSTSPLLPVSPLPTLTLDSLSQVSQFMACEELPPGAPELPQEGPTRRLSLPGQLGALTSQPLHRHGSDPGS

Compared with `N=c1c2c(-c3ccccc3)c(-c3ccccc3)oc2ncn1CCN1CCOCC1`, `Cn1c(=O)c(-c2ccccc2)nn2c3ccccc3nc12` is higher in “hERG current change (%, negative = inhibition) at 1uM” value: -63.5% for the first, 10% for the second.

Going from `CC1CCN(C(=O)c2ccc(S(=O)(=O)Cc3ccccc3F)c([N+](=O)[O-])c2)CC1` to `O=C(NCCCN1CCCC1=O)c1ccc(S(=O)(=O)Nc2ccccc2F)cc1`, the “hERG current change (%, negative = inhibition) at 1uM” value falls from 5.35% to -0.0222%.

Compared with `O=C1OC(Nc2ccc(F)c([N+](=O)[O-])c2)c2ccccc21` (centres unmarked), `Fc1ccc(NCc2ccccc2F)cc1Cl` is lower in “hERG current change (%, negative = inhibition) at 1uM” value: 7.65% for the first, -76.5% for the second.

Going from `COc1cccc(/C=C2\SC(=S)N(C(C)C(=O)NC3C=CS(=O)(=O)C3)C2=O)c1` (centres unmarked) to `O=C(CCCN1C(=O)/C(=C/c2ccc3c(c2)OCO3)SC1=S)Nc1cccc(C(=O)O)c1`, the “hERG current change (%, negative = inhibition) at 1uM” value falls from 11.2% to 9.71%.

Going from `C/C(=N\NC(=O)Cc1ccc(Cl)cc1)c1cccnc1` to `CC(=O)c1ccc(NC(=O)C(C)Nc2ccc(Cl)cc2)cc1` (centres unmarked), the “hERG current change (%, negative = inhibition) at 1uM” value falls from 13.4% to 7.44%.

Going from `CCN(CC)CCCNC(=O)N[C@@H](Cc1ccccc1)C(=O)O` to `Cc1ccc(C(=O)NC(Cc2c[nH]c3ccccc23)C(=O)O)cc1` (centres unmarked), the “hERG current change (%, negative = inhibition) at 1uM” value falls from 6.72% to 2.23%.

Going from `C[C@@]12C(=O)Nc3ccc(Br)cc3C(=O)N1[C@H]1c3cc(Cl)ccc3OC[C@@H]1[C@@H]2c1ccccc1` to `CN1CC(C(=O)c2ccc(Cl)cc2)C(c2ccccc2)C1` (centres unmarked), the “hERG current change (%, negative = inhibition) at 1uM” value falls from 16.5% to 6.78%.

Going from `Cc1ccc(SCc2[nH]nc3c2C(C(C)C)C(C#N)=C(N)O3)cc1` (centres unmarked) to `Cc1ccc(C(=O)NCCSC(C)(C)C)cc1`, the “hERG current change (%, negative = inhibition) at 1uM” value falls from 15.8% to 2.44%.

Going from `COC(=O)c1ccc(C2C(C(C)=O)=C(C)Nc3ncnn32)cc1` (centres unmarked) to `CCCCOc1ccc(C(=O)OCC(=O)NC2CCCC2)cc1`, the “hERG current change (%, negative = inhibition) at 1uM” value falls from 10.3% to 7.23%.

First: CN(CC(=O)Nc1ccc(F)cc1)C(=O)C1CCN(C(=O)Nc2ccccc2)CC1
Second: O=C(Nc1ccc(C(=O)O)cc1)Nc1ccc([N+](=O)[O-])cc1
The “hERG current change (%, negative = inhibition) at 1uM” value of the first is lower: 3.54% for the first, 16.7% for the second.

First: Cc1ccccc1C(C(=O)NCc1ccccc1)N(Cc1ccco1)C(=O)c1ccccn1 (centres unmarked)
Second: O=C(CCCc1ccccc1)NCc1ccccn1
The “hERG current change (%, negative = inhibition) at 1uM” value of the first is higher: 10.8% for the first, 9.55% for the second.

Going from `C1=CC2c3ccccc3NC(c3ccncc3)C2C1` (centres unmarked) to `Cc1ccc2c(c1)C1C=CCC1C(C(=O)O)N2` (centres unmarked), the “hERG current change (%, negative = inhibition) at 1uM” value rises from 5.2% to 12.1%.

Going from `CC(C)N(Cc1ccccc1)C(=O)CN1C(=O)COc2ccc(S(=O)(=O)N3CCCCCC3)cc21` to `CCCn1cc(S(=O)(=O)CC(=O)N2CCc3ccccc32)c2ccccc21`, the “hERG current change (%, negative = inhibition) at 1uM” value falls from 13.7% to 5.83%.

Compared with `COc1ccc(CCNC(=O)CCCCCN2C(=O)c3ccccc3C2=O)cc1OC`, `COc1ccc(CCN2C(=NC(=O)CC(C)C)SC3CS(=O)(=O)CC32)cc1OC` (centres unmarked) is higher in “hERG current change (%, negative = inhibition) at 1uM” value: -1.78% for the first, 12.7% for the second.

Going from `CCOC(=O)O[C@]1(C(=O)COC(=O)CC)CC[C@H]2[C@@H]3CCC4=CC(=O)C=C[C@]4(C)[C@H]3[C@@H](O)C[C@@]21C` to `CCOc1cc(NC(=S)NCC2CCCO2)c(OCC)cc1NC(=O)c1ccc(OC)cc1` (centres unmarked), the “hERG current change (%, negative = inhibition) at 1uM” value falls from 8.4% to 4.07%.

Going from `COCCNCc1nc2sc(C)c(-c3ccccc3)c2c(=O)[nH]1.O=C(O)C(=O)O` to `O=C(CSc1nnc2c(n1)[nH]c1ccccc12)NCc1ccccc1F`, the “hERG current change (%, negative = inhibition) at 1uM” value falls from 15.1% to 4.41%.

First: CCC(=O)Nc1ccc(-c2nnc(SCC(=O)NCC3CCCO3)n2C)cc1 (centres unmarked)
Second: CC(C)c1ccc(NC(=O)CSc2nc(=O)n(CCCN3CCOCC3)c3c2CCCC3)cc1
The “hERG current change (%, negative = inhibition) at 1uM” value of the first is higher: 14.4% for the first, -2.46% for the second.

Compared with `N#CCCSCc1ccc(C(=O)O)o1`, `N#Cc1ccc(CC(C(=O)O)N2Cc3ccccc3C2=O)cc1` (centres unmarked) is higher in “hERG current change (%, negative = inhibition) at 1uM” value: 14.5% for the first, 17.3% for the second.

Compared with `CCn1cc(C(=O)O)c(=O)c2cc(F)c(N3CCN(C(=S)NC(=O)c4cccc(F)c4)CC3)cc21`, `Cc1c(Cl)cccc1NC(=O)c1cccc(NC(=O)CCC(=O)O)c1` is lower in “hERG current change (%, negative = inhibition) at 1uM” value: 7.8% for the first, -0.51% for the second.

First: Cc1ccc2[nH]c3c(=O)n(CCC4=CCCCC4)cnc3c2c1
Second: COc1ccc(Cn2cnc3c4cc(F)ccc4n(C)c3c2=O)cc1
The “hERG current change (%, negative = inhibition) at 1uM” value of the first is higher: 11% for the first, 1.01% for the second.

First: CCC(C)NC(=O)CCS(=O)(=O)c1ccc2c(c1)n(C)c(=O)c(=O)n2C (centres unmarked)
Second: CCS(=O)(=O)Nc1cc(C(=O)O)ccc1C
The “hERG current change (%, negative = inhibition) at 1uM” value of the first is lower: 6.48% for the first, 13.3% for the second.

Going from `Cc1ccc(OCC(=O)Nc2ccc(N3CCN(C(=O)c4ccco4)CC3)cc2)cc1` to `Cc1ccc(S(=O)(=O)NCc2ccc(C(=O)NC3CC3)cc2)cc1`, the “hERG current change (%, negative = inhibition) at 1uM” value rises from -0.667% to 3.97%.

Compared with `COc1cccc(NC(=S)NCCN2CCOCC2)c1`, `COc1cccc(NC(=S)NNC(=O)c2c([N+](=O)[O-])c(C)nn2C)c1` is lower in “hERG current change (%, negative = inhibition) at 1uM” value: 10.3% for the first, 8.54% for the second.

Compared with `Cc1[nH]nc2nc(SCC(=O)NC3CCCCC3)n(-c3ccc(Br)cc3)c(=N)c12`, `COc1ccc(-c2[nH]ncc2/C=C(/C#N)C(=O)NC2CCCCCC2)cc1` is lower in “hERG current change (%, negative = inhibition) at 1uM” value: 13.1% for the first, 5.36% for the second.

Going from `NC(=O)c1cccc2c(=O)oc3ccccc3c12` to `O=C(CCn1c(=O)oc2ccccc21)NCc1ccco1`, the “hERG current change (%, negative = inhibition) at 1uM” value rises from 9.01% to 13%.

Going from `NC(=O)C1(N2CCCCC2)CCN(C(=S)Nc2cc(F)cc(F)c2)CC1` to `COc1cccc(CNC(=O)C2CCN(c3ncnc4c3nc3n4CCCCC3)CC2)c1`, the “hERG current change (%, negative = inhibition) at 1uM” value rises from 4.85% to 15.2%.

First: Cc1ccc2nc3sc(C(=O)N4CCCc5ccccc54)c(N)c3cc2c1
Second: Cc1cc(NC(=O)c2noc3c2CCc2ccccc2-3)n(-c2ccccc2)n1
The “hERG current change (%, negative = inhibition) at 1uM” value of the first is lower: 8.43% for the first, 10.4% for the second.

Compared with `C/C(CC(=O)Nc1ccc(N(C)C)cc1)=N\NC(=O)c1ccc([N+](=O)[O-])cc1`, `CCn1cc(CN(C)C(=O)/C=C/c2ccc([N+](=O)[O-])cc2)c(C)n1` is lower in “hERG current change (%, negative = inhibition) at 1uM” value: 1.72% for the first, -35.3% for the second.

First: Cn1ccsc1=NC(=O)c1cccc(C#N)c1
Second: CCN(CC(=O)Nc1c(F)cccc1F)C(=O)c1ccc2ncsc2c1
The “hERG current change (%, negative = inhibition) at 1uM” value of the first is higher: 13.5% for the first, 12.3% for the second.

Going from `CCNC(=S)SCCOc1ccccc1C` to `CCCNC(=O)CN(Cc1ccccc1F)S(=O)(=O)c1ccc(C)cc1`, the “hERG current change (%, negative = inhibition) at 1uM” value falls from 14.5% to 5.85%.

Compared with `CO/N=C/c1c(-c2ccccc2)nn(C)c1Cl`, `CS(=O)(=O)Nc1ccc2c(c1)ncn2CCc1ccccc1` is lower in “hERG current change (%, negative = inhibition) at 1uM” value: 15.9% for the first, -5.57% for the second.

Going from `NS(=O)(=O)c1ccc(N=C2C(=O)Nc3ccccc32)cc1` to `COc1ccc(/C=C2\SC(=Nc3ccccc3OC)NC2=O)cc1`, the “hERG current change (%, negative = inhibition) at 1uM” value falls from 17.4% to 11.8%.

Compared with `CC1=NN=C(c2ccc(N)cc2)c2cc3c(cc2C1)OCO3.Cl`, `COc1ccc(Cc2nc3ccc(C(=O)N(C)CCO)cc3o2)cc1` is lower in “hERG current change (%, negative = inhibition) at 1uM” value: 14.6% for the first, 3% for the second.

Compared with `CC(C)C(=O)O/N=C(\N)c1ccc(Oc2ccc(Cl)cc2)c([N+](=O)[O-])c1`, `NS(=O)(=O)c1cccc(NC(=O)CCSc2ccccc2Cl)c1` is lower in “hERG current change (%, negative = inhibition) at 1uM” value: 10.5% for the first, 5.04% for the second.

Going from `CCOc1ccc(N2C(=O)CNC2=S)cc1` to `CSc1nc2ccccc2c(=O)n1Cc1ccc(F)cc1`, the “hERG current change (%, negative = inhibition) at 1uM” value rises from 2.76% to 6.61%.

Compared with `COC(=O)c1onc(-c2c(OC)cc(OC)cc2OC)c1C(=O)OC`, `Cc1c(CC(=O)NCC(=O)NCC(=O)O)c(=O)oc2cc3oc4c(c3cc12)CCCC4` is higher in “hERG current change (%, negative = inhibition) at 1uM” value: 8.04% for the first, 9.76% for the second.

First: CC1CCCC(C)N1/N=C/c1ccccc1C(=O)O (centres unmarked)
Second: CC1CN(C(=O)/C=C/c2ccccc2[N+](=O)[O-])CC(C)O1 (centres unmarked)
The “hERG current change (%, negative = inhibition) at 1uM” value of the first is lower: 6.19% for the first, 6.46% for the second.

Compared with `O=C(Nc1nc(-c2cccc(Br)c2)cs1)Oc1ccccc1`, `O=C1C(=O)N(CCc2c[nH]c3ccccc23)C(c2cccnc2)/C1=C(/O)c1ccccc1` (centres unmarked) is lower in “hERG current change (%, negative = inhibition) at 1uM” value: 11.9% for the first, 8.84% for the second.

Going from `Cc1ccc(C)c(NC(=O)c2cnc3n(c2=O)CCS3)c1` to `Cc1cc(=O)n2nc(N3CCC(C(=O)NCc4ccc(F)cc4)CC3)sc2n1`, the “hERG current change (%, negative = inhibition) at 1uM” value rises from -14.4% to 0.746%.

First: CCCn1c(SC(C)C(=O)NCC2CCCO2)nc2sc3c(c2c1=O)CCC3 (centres unmarked)
Second: NC(=O)C1CC(O)CN1c1nc(CN2CCOCC2)nc2scc(-c3ccccc3)c12 (centres unmarked)
The “hERG current change (%, negative = inhibition) at 1uM” value of the first is higher: 3.03% for the first, 0.0341% for the second.

Compared with `O=C(Nc1nccs1)C1CCCN1S(=O)(=O)c1ccc(Cl)cc1` (centres unmarked), `Cc1c(Cl)cccc1NC(=O)CN(C1CCCCC1)S(C)(=O)=O` is lower in “hERG current change (%, negative = inhibition) at 1uM” value: 17.3% for the first, 11.2% for the second.

First: CC1CCN(c2ccc([N+](=O)[O-])c(SCCO)c2)CC1
Second: Cc1c(N)cccc1[N+](=O)[O-]
The “hERG current change (%, negative = inhibition) at 1uM” value of the first is lower: 8.74% for the first, 19.9% for the second.

First: O=C(NC1CCCCCCC1)c1ccc(Br)o1
Second: CC1(C)CC2CC(C)(CN2C(=O)c2ccccc2)C1 (centres unmarked)
The “hERG current change (%, negative = inhibition) at 1uM” value of the first is lower: 0.286% for the first, 8.21% for the second.

First: COC(=O)[C@@](C)(O)C1(C(=O)SC(C)(C)C)CC1
Second: CC(C)=NN1C(c2nonc2N)=NOC1(C)C
The “hERG current change (%, negative = inhibition) at 1uM” value of the first is higher: 8.34% for the first, 6.43% for the second.

`CC(C)c1c(C(=O)N/N=C/c2cccnc2)nnn1-c1nonc1N` was tested, and the “hERG current change (%, negative = inhibition) at 1uM” value was 13.7%.
